# Laboratory results: the supplement of paper PMC3334620
# In all, about 33,000 sequences were measured (“E-score (-0.5 to 0.5)”: median about -0.043, highest 2% from about 0.37 on). This is one part of the list.
# Molecular target: T1, Upc2 (UniProt Q12151)
# T1 sequence: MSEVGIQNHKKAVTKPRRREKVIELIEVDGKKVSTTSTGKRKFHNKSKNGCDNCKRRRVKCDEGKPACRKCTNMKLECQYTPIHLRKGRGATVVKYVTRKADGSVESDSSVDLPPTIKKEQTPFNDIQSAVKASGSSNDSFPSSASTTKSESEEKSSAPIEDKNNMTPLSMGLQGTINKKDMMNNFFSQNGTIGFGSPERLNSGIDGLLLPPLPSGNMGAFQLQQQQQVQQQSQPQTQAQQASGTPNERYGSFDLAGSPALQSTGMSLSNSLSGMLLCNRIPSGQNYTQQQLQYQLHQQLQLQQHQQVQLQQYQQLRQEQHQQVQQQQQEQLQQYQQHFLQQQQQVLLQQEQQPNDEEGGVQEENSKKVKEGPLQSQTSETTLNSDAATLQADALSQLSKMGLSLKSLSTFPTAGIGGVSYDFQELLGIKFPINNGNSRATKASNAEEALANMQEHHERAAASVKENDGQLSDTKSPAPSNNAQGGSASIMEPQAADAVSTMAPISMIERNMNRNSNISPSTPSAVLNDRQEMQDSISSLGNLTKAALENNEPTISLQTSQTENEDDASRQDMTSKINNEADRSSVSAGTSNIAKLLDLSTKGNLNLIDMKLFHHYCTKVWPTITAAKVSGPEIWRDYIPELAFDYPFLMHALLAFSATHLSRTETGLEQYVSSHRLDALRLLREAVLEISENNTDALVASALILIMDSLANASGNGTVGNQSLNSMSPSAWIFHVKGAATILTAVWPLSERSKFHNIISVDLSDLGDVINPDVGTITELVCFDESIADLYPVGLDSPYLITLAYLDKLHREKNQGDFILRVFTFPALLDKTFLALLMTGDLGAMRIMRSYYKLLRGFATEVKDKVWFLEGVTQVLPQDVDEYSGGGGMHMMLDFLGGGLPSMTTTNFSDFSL
# Assay: PBM E-score (8-mer binding enrichment) (E-score (-0.5 to 0.5)); higher = stronger / more preferred TF binding; most listed sequences are background and not binding sites
# Details: protein concentration: 200 nM; construct: GST-full length
# Outline: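 Universal all-10-mer Agilent arrays, fresh or stripped once, were converted to double-stranded form by primer extension. GST-tagged yeast transcription factors from PURExpress in vitro transcription/translation, full-length or DNA-binding domain only, were applied at about 100-200 nM and detected with fluorescent anti-GST. After masliner normalisation, the Universal PBM Analysis Suite scored each ungapped eight-base word together with its reverse complement by E-score.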
row,Sequence,PBM E-score
1,CAGCCCAA,-0.0637
2,GGCCACGA,-0.208
3,CCCACTGC,-0.13
4,TAGCTCCA,-0.0994
5,AGTGGCGG,-0.222
6,CGAACCGA,0.293
7,TCGTGCCA,-0.00902
8,GTAACGAC,0.326
9,CATTCTTC,-0.129
10,TACCAAAA,-0.062
11,CACTAGCA,-0.201
12,AGATACGA,0.454
13,ATGGGCTG,-0.154
14,AATCACCA,-0.0247
15,ACAGGCCC,-0.29
16,AACTAAAT,-0.0165
17,CCACTTTC,-0.0836
18,GACGAAAA,0.177
19,AGTTAGTA,-0.0415
20,ACTGCTAC,0.0236
21,AGCCGGCT,-0.314
22,AGGATCTG,-0.176

row,Sequence,PBM E-score
1,CTTAGCCC,-0.113
2,AGCATCGG,-0.231
3,GGTTTCCA,-0.228
4,CGTTAGCA,0.0714
5,CGTTCGTA,0.45
6,ACGTACCG,0.272
7,GAATGATC,0.0166
8,AGGTACCT,-0.0876
9,CCTGAATC,-0.167
10,TATGGAGA,-0.157
11,GCTAAGAA,0.0999
12,ACCATACA,-0.0345
13,CGTAAGAG,0.316
14,GTTGTTAA,0.0929
15,CTTAGCAC,-0.0813
16,GCTATAAA,0.0876
17,ACCCGTGG,-0.174
18,ATCGATAA,0.00669
19,CAATATGG,-0.308
20,AACCTACG,0.0703
21,GTTTTGGA,-0.0699
22,CTCGACAA,-0.0801

row,Sequence,PBM E-score
1,ACACGGAA,-0.0611
2,CAGAGCCA,-0.101
3,ATCCTTAC,-0.0381
4,ATAGATGA,-0.0908
5,CGGGCAAA,0.0178
6,AGGCTTTA,-0.0618
7,ATGTTACA,-0.0859
8,CCAGATTA,-0.131
9,ACTAGTTC,-0.0523
10,ACCCCTTG,-0.224
11,ATATACAG,0.116
12,AAAAGTAC,0.132
13,GGTTAGTA,0.0936
14,GCATCGTA,0.429
15,AGTTCGGG,-0.0213
16,GCAGTCTA,-0.216
17,ATCTGCAG,-0.109
18,GCAGCTAA,-0.156
19,GAAATTAC,0.113
20,CGCAGTAA,-0.0453
21,GCGAACGC,0.158
22,CAGCTTGC,-0.136

row,Sequence,PBM E-score
1,CACTGTTC,-0.128
2,TAAGTTCA,-0.047
3,CTAGCAGC,-0.286
4,CAAGCCGG,-0.204
5,TCGACTCA,-0.0433
6,ACGCCTAT,-0.0551
7,AAGCTTTC,-0.00324
8,CGCGACCG,0.146
9,GAGAGCGC,-0.164
10,ACGGGCGG,-0.0925
11,TCAGCAAA,0.0629
12,ATTTCCTA,0.124
13,AAGTTTCT,-0.00273
14,ATCCGTCA,-0.129
15,GGCAAAGA,0.0516
16,ACACGTCG,0.0569
17,GAGTGGCC,0.0105
18,AATGGTTC,0.0645
19,AGTGCGTG,-0.00031
20,GACCGAAC,0.105
21,ATGAGACA,-0.0142
22,GCATCGCC,-0.0273

row,Sequence,PBM E-score
1,CAATAAGC,-0.0521
2,AGTAGTAC,0.182
3,ATATGAGC,-0.119
4,GGCATACC,-0.294
5,AAGGTTAT,-0.0588
6,AACCGAGT,0.203
7,CAAAGCTG,-0.115
8,CCTGCGTA,0.265
9,AACTGTTA,0.152
10,GGCAGGGA,-0.152
11,ACGCGACC,0.151
12,CAATCGCG,-0.0257
13,TAACCCAA,0.00963
14,CGTCGAGC,-0.0913
15,TCATGGCA,-0.0847
16,CCCAATTC,0.016
17,AGTAAGGA,-0.098
18,ATGACTTC,-0.0247
19,CGCAAGCC,-0.0123
20,ACTTTCCT,-0.267
21,GACGGCAA,-0.163
22,GTGACTTA,0.0264
